Data taken from PubChem BioAssay AID504832 (National Center for Advancing Translational Sciences (NCATS), 2011).
Out of some 310,000 compounds screened, about 18,000 (5.8%) were called active. The shares of active, inactive and inconclusive entries below differ from those in the screen. Calls follow the shape of the dose curve; as a rule, active = well fitted inhibition curve with a large enough effect; inconclusive = small, poorly fitted or top-dose-only effect, or another doubt; inactive = no such curve, though single readings can be large or run the other way. No potency is given beside an inconclusive call; the fits are too rough.

Assay: Primary qHTS for delayed death inhibitors of the malarial parasite plastid, 48 hour incubation
Settings: P. falciparum luciferase growth in erythrocytes; series mostly up to 28.7 µM
In short: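 Cell-based growth assay: transgenic P. falciparum expressing firefly luciferase, cultured in red cells within RPMI 1640 containing 0.5% w/v Albumax, 24 mM bicarbonate and gentamycin. A drop in luciferase activity indicates inhibition.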
Potency is read from the fitted curve at half-maximal effect; tags tell the direction and shape of the fitted curve.

| SMILES | Potency |
| --- | --- |
| CN(C)CCCNc1ncnc2sc(-c3ccccc3)cc12 | inconclusive [inhibitor, single point] |
| COc1cccc(C2CC(c3cccs3)=NN2C(=O)CSC2=NCCS2)c1OC (stereo not drawn) | active: 10.4 µM |
| C/C=C/C=C\C(=O)Nc1cccc(C2=NOC3(C2)C[C@H](C(N)=O)N(C(=O)CC#N)C3)c1 (stereo partly drawn) | inactive |
| CCCCCNC(=O)c1c[nH]c2ccc(S(=O)(=O)N3CCC4(CC3)OCCO4)cc2c1=O | active: 13.1 µM |
| Cc1cc([N+](=O)[O-])ccc1NC(=O)c1ccc(NC(=O)C(C)C)cc1 | inconclusive [inhibitor, partial curve, poor fit] |
| Cc1ccc(O)c(C(=O)c2cc(C(=O)NCCc3ccccc3)c(=O)n(CCc3ccccc3)c2)c1 | active: 1.85 µM |
| COc1cc(SC)ccc1C(=O)N1CC(C)OC(C)C1 (stereo not drawn) | active: 1.65 µM |
| Cc1cc(C)c(C)c(S(=O)(=O)NCCCn2ccnc2)c1C | inconclusive [inhibitor, partial curve, poor fit] |
| COc1cccc2c(=O)n(CC(=O)NC3CCCCC3)ccc12 | inactive |
| COc1ccc(CN(C)C(=O)Cc2ccsc2)c(OC)c1OC | active: 13.1 µM |
| C#CCSc1nnc(CSc2nc3ccccc3s2)n1-c1ccccc1 | inactive |
| CC(Oc1ccccc1)C(=O)N(CCC1=CCCCC1)c1c(N)n(Cc2ccccc2)c(=O)[nH]c1=O (stereo not drawn) | inconclusive [inhibitor, single point] |
| Cc1ccc(-c2cc(=O)c3cc(Cl)ccc3[nH]2)cc1 | inactive |
| OC(CNCc1ccc(F)cc1)(c1ccccc1)c1ccc(F)cc1 (stereo not drawn) | active: 2.62 µM |
| Cc1nccn1CCOc1ccc(Cl)cc1 | inactive |
| COc1ccc(C(=O)CC2OC(=O)c3ccccc32)cc1OC (stereo not drawn) | inconclusive [inhibitor, single point] |
| COc1ccc(/C=N/NC(=S)Nc2ccccc2)cc1COc1ccc(F)cc1F | inconclusive [inhibitor, single point] |
| Cc1ccc(-c2nnc(OCc3cccnc3)c3ccccc23)cc1 | inconclusive [inhibitor, single point] |
| c1cnc2ccc(C(c3nnnn3C3CCCC3)N3CCN(c4nc5ccccc5s4)CC3)cc2c1 (stereo not drawn) | active: 5.22 µM |
| Nc1nc(COC(=O)C2CCN(C(=O)c3ccc(Cl)cc3)CC2)nc(Nc2ccccc2)n1 | inconclusive [inhibitor, single point] |
| O=C(NC1CCCC1)c1ccc([N+](=O)[O-])s1 | inactive |
| COc1ccc2c(c1)C1(Nc3ccccc3C(=O)N1c1ccccc1)C(=O)N2 (stereo not drawn) | inconclusive [inhibitor, single point] |
| COc1cc(NS(=O)(=O)c2ccc3ccccc3c2)c2ncccc2c1 | active: 4.15 µM |
| CC(C)(C)c1cc(CCC(=O)NNC(=S)NC(=O)c2ccccc2)cc(C(C)(C)C)c1O | active: 13.1 µM |
| CCOC(=O)C1=C(C)N(C)C(=S)NC1c1ccc(Cl)cc1 (stereo not drawn) | inconclusive [inhibitor, partial curve, poor fit] |

| SMILES | Potency |
| --- | --- |
| N#Cc1ccc(NC(=O)C2CC(c3ccc(F)cc3)=NO2)cc1 (stereo not drawn) | inconclusive [inhibitor, single point] |
| O=C(COC(=O)CNC(=O)c1sc2ccccc2c1Cl)NC1CCS(=O)(=O)C1 (stereo not drawn) | inactive |
| COc1ccc(C2=NOC(C(=O)Nc3ccc4c(c3)OCCO4)C2)cc1OC (stereo not drawn) | inconclusive [inhibitor, single point] |
| Cc1ccc(-n2c(C)cc(/C=C3\NC(=O)NC3=O)c2C)c(C)c1 | active: 13.1 µM |
| CN(C)S(=O)(=O)c1ccc(N2CCCC2)c(C(=O)OCC(=O)NC2CCCCC2)c1 | inconclusive [inhibitor, partial curve, poor fit] |
| O=C(Cn1ncc2c3ccccc3n(Cc3ccccc3)c2c1=O)NCCCN1CCOCC1 | inconclusive [inhibitor, partial curve] |
| Cc1ccc(-c2cc(Cc3ccccn3)c(=O)[nH]n2)cc1 | inconclusive [inhibitor, partial curve] |
| CC(C)c1ccc(S(=O)(=O)N2CCN(CC(=O)c3ccc(O)c(O)c3)CC2)cc1 | inactive |
| COc1ccc(NC(=O)CSc2ncnc3[nH]ncc23)cc1 | inconclusive [inhibitor, partial curve, poor fit] |
| CNC(=O)C1=C(C)Nc2nc3ccccc3n2C1c1ccc(F)cc1 (stereo not drawn) | inconclusive [inhibitor, partial curve] |
| COc1ccc(Cl)cc1N1C(=O)CN(Cc2cc(OC)c(OC)c(OC)c2)C1=S | active: 3.29 µM |
| Cc1ccc(N(CC(=O)NC2CCCCC2)C(=O)CNC(=O)c2ccco2)c(C)c1 | inconclusive [inhibitor, partial curve, poor fit] |
| CC(Cl)C(=O)N1c2ccccc2CCc2ccccc21 (stereo not drawn) | inconclusive [inhibitor, partial curve] |
| Oc1c(Cl)cccc1C=Nc1cc(C(F)(F)F)ccc1N1CCCC1 | inconclusive [inhibitor, single point] |
| CCCCN1CCCC[C@H]1C(=O)Nc1c(C)cccc1C | inactive |
| O=C(CNc1ccc(Br)cc1)NC(=O)NC1CCCCC1 | inactive |
| Cc1ccccc1C(=O)Nc1cccc(NC(=O)Cn2cnc3c(=O)n(C)c(=O)n(C)c32)c1 | inconclusive [inhibitor, single point] |
| COc1ccccc1/C=C/C=N/n1c(-c2ccc(Cl)cc2Cl)n[nH]c1=S | inconclusive [inhibitor, partial curve, poor fit] |
| CC(C)CCn1c(NCCc2ccccc2)nc2c1c(=O)n(C)c(=O)n2C | inconclusive [inhibitor, single point] |
| CCOC(=O)C1(CC2CC2)CCN(Cc2ccc(C(=O)OC)cc2)CC1 | active: 9.28 µM |
| O=C(CN1CCN(S(=O)(=O)c2ccccc2)CC1)Nc1ccnn1C1CCCC1 | inconclusive [inhibitor, single point] |
| Cc1cc2oc(C(=O)Nc3ccc(S(=O)(=O)N4CCCC(C)C4)cc3)cc(=O)c2cc1Cl (stereo not drawn) | active: 13.1 µM |
| CC(=O)Nc1ccc(/C=N/NC(=O)c2cc3ccccc3nc2C)cc1 | inactive |
| CC(C)(C)c1ccc(S(=O)(=O)N2CCC(O)(c3ccc(Cl)cc3)CC2)cc1 | inconclusive [inhibitor, single point] |
| Cc1cc(O)ccc1NC(=S)NC(=O)c1cncc(Br)c1 | inconclusive [inhibitor, single point] |

| SMILES | Potency |
| --- | --- |
| O=C1CC[C@@H](O)CCN1CC[C@H](Sc1ccccc1)c1ccccc1 | inactive |
| COC(=O)Cn1c(=NC(=O)c2ccc(Cl)s2)sc2cc(C)ccc21 | inactive |
| O=C(c1ccco1)N1CCN(Cc2cc(=O)c(OCc3ccccc3F)co2)CC1 | inconclusive [inhibitor, single point] |
| CN(CCC1CCCCO1)Cc1cn(C)nc1-c1ccc2c(c1)OCCO2 (stereo not drawn) | inactive |
| CCCCOc1ccccc1NC(=O)c1scc2c1OCCO2 | inconclusive [inhibitor, partial curve, poor fit] |
| COc1ccc(NC(=O)c2ccc(S(=O)(=O)N(C)c3ccccc3)cc2)cn1 | inconclusive [inhibitor, partial curve] |
| C/C(=N\Nc1ccc(Cl)c(C(=O)O)c1)c1cccc2ccccc12 | inactive |
| COc1ccc(-n2c(C)c(C(C)=O)c(C(C)=O)c2C)cc1 | inactive |
| CN(/C=C1/C(=O)CNC1=O)CCO | inactive |
| Cc1ccc2[nH]c(=O)c(COC(=O)C3CCCCC3)cc2c1 | inactive |
| Fc1ccc(CNC(=S)NCc2ccc(F)cc2)cc1 | inconclusive [inhibitor, single point] |
| COC(=O)c1ccc(/C=N/NC(=S)NC(C)C)cc1 | inactive |
| COc1ccc(/C=N/Nc2cc(C)nc3ccc(Br)cc23)cc1 | active: 0.262 µM |
| CCCCC(=O)NC(=O)NC(c1ccccc1)c1ccccc1 | inconclusive [inhibitor, partial curve, poor fit] |
| CCCCc1nnc(NC(=O)CCS(=O)(=O)c2ccc(C)cc2)s1 | inconclusive [inhibitor, single point] |
| COc1ccc(CNCC(O)(c2ccc(F)cc2)c2ccc(F)cc2)cc1OC | active: 4.15 µM |
| Cc1ccc(C2=NN(C(=O)CCl)C(c3ccco3)C2)o1 (stereo not drawn) | active: 10.4 µM |
| CCCCCCc1cc2cc(C(=O)NC)c(=N)oc2cc1O | inconclusive [inhibitor, partial curve, poor fit] |
| Cc1ccccc1NC(=O)CSc1ccc2nnc(-c3ccccn3)n2n1 | inconclusive [inhibitor, single point] |
| CCc1nc(SCC(=O)Nc2cc(OC)ccc2OC)c2c(C)c(C)sc2n1 | inconclusive [inhibitor, partial curve, poor fit] |
| COc1ccc(CC(=O)Nc2cccc(/C(C)=N/NC(=O)C3(C)CC3(Br)Br)c2)cc1 (stereo not drawn) | inconclusive [inhibitor, partial curve] |
| COc1ccccc1C(C)NC(=O)c1ccc(NC(=O)CC2SC(N3CCCC3)=NC2=O)cc1 (stereo not drawn) | inconclusive [inhibitor, single point] |
| CCOc1nc2cccc(C(=O)O)c2n1Cc1ccc(-c2ccccc2-c2nn[nH]n2)cc1 | inconclusive [inhibitor, partial curve, poor fit] |
